The whole screen tested about 360,000 compounds, of which about 2,600 (0.72%) were called active. This list was built around the results that the source calls inconclusive (neither active nor inactive); the mix of calls is not that of the screen. The call rests on the fitted dose curve; in most records, active means well fitted inhibition curve with a large enough effect; inconclusive means small, poorly fitted or top-dose-only effect; inactive means no such curve, though single readings can be large or run the other way. A potency beside an inconclusive call is a rough fit, not a confirmed value.
Assay: Primary qHTS for Inhibitors of ATXN expression; further: nearly all actives have a fitted effect of over 55% in size
Settings: HEK-293 ATXN2-luciferase reporter, luminescence, 24 h; series mostly up to 57 µM
In short: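 ATXN2-luciferase reporter cells (luciferase flanked by upstream and downstream ATXN2 gene portions) were treated 24 h at 37 °C with compounds at up to 57 uM. SteadyGlo luminescence gave expression; GF-AFC fluorescence gave viability.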
Potency means the concentration at half of the fitted maximal effect; tags describe the fitted curve by direction and shape.

Potency, inactive:
CCOc1nc(N2CCCCC2)nc(-n2cc(-c3ccccc3)nn2)n1
COC1OC(CO)C(N=C(C)C)C1O (stereo unspecified)
N#CC1(NC(=O)CN2C(=O)c3ccccc3C2=O)CCCCC1
Cc1c(C(=O)NCCc2ccccc2)oc2ccccc12
CC(C)Cc1cc(C(=O)Nc2ccc3c(c2)OCO3)no1
O=C(c1ccc(-c2ccccc2Cl)o1)N1CCC1
O=C(CN(C(=O)c1ccccc1)C(=O)c1ccccc1)OCc1ccccc1
CCC(C)NC(=O)CCC(=O)N1Cc2ccccc2Oc2ncccc21 (stereo unspecified)
CC(C)c1ccc(/C=C/C(=O)N2CCc3ccccc3C2)cc1
Cc1ccc2occ(C(c3nnnn3C3CCCC3)N3CCN(C(=O)c4ccco4)CC3)c(=O)c2c1 (stereo unspecified)

Potency, inconclusive:
CCOC(=O)N1CCC(Nc2ccc(Cl)cc2N)CC1 22.4 µM [inhibitor, partial curve, poor fit]
COc1ccnc(Oc2ccc(F)cc2)c1C(=O)N/C=N/OCc1ccc(Cl)cc1Cl 17.8 µM [inhibitor, partial curve, poor fit]
COc1ccc(S(=O)(=O)Nc2cc(-c3c(O)ccc4ccccc34)c(O)c3ccccc23)cc1 38.5 µM [inhibitor, single point]
COc1ccccc1C(=O)NNC(=S)NC(=O)c1ccco1 20 µM [inhibitor, partial curve, poor fit]
NC(=O)[C@H]1CC2(CC(c3cccc(NC(=O)COc4ccc(Cl)cc4)c3)=NO2)CN1C(=O)CC(c1ccccc1)c1ccccc1 (stereo partly specified) 20 µM [inhibitor, single point]
Nc1ccc(-c2cc3ccccc3c(=O)o2)cc1 0.355 µM [inhibitor, full curve]
CCOC(=O)N1CCN(C(=O)c2ccc(Cn3c(=S)[nH]c4ccc(Br)cc4c3=O)cc2)CC1 17.8 µM [inhibitor, partial curve]
Cc1cccc(N2CCN(C(=O)C3CCN(c4ncnc5c4nc4n5CCCCC4)CC3)CC2C)c1 (stereo unspecified) 28.2 µM [inhibitor, single point]
O=C(NCc1ccc(C(F)(F)F)cc1)c1cccc2c(-c3cccnc3)coc12 39.8 µM [inhibitor, single point]
Cc1ccc(C)c(N2CCN(C(=O)C3CCCN(c4ncnc5c4nc4n5CCCCC4)C3)CC2)c1 (stereo unspecified) 39.8 µM [inhibitor, single point]
O=C(Oc1c(Br)cc([N+](=O)[O-])cc1Br)c1cccnc1 37.7 µM [inhibitor, single point]
Cc1nc(/N=C(\N)NC(=O)NC2CCCCC2)nc2ccccc12 17.8 µM [inhibitor, partial curve]
Cc1ccc(S(=O)(=O)Nc2ccc3nc(-c4ccc(F)cc4)oc3c2)cc1 39.8 µM [inhibitor, partial curve, poor fit]
CSC1=NCCN1C(=O)Cc1ccc(-c2ccccc2)cc1 0.0053 µM [inhibitor, full curve, poor fit]
COc1ccc2c(c1)[C@@H]1[C@H](CO2)[C@H](c2ccccc2)[C@]2(C)C(=O)Nc3ccc(C)cc3C(=O)N12 39.8 µM [inhibitor, single point]
CC1(C(=O)NCc2ccc3c(c2)OCO3)CCN1C(=O)CCc1ccc(Cl)cc1Cl (stereo unspecified) 39.8 µM [inhibitor, partial curve, poor fit]
Cc1ccc(C(=O)NC(=S)Nc2ccc(NC(=O)c3cccs3)cc2)cc1[N+](=O)[O-] 28.2 µM [inhibitor, single point]
O=C(/C=C/c1ccccc1)c1ccccc1O 39.8 µM [inhibitor, single point]
COc1cccc(NC(=S)N2CCN(Cc3ccccc3)CC2)c1 3.98 µM [inhibitor, single point]
c1ccc(-c2nc(NCCCn3ccnc3)c3oc4ccccc4c3n2)cc1 31.6 µM [inhibitor, single point]
CC(C)C[C@H]1CNC(=S)N1C[C@H]1CCCN1C[C@H](CC(C)C)N1C[C@H](Cc2ccccc2)N(CCc2ccccc2)C1=S 7.94 µM [inhibitor, full curve]
CC(=O)c1cccc(NC(=O)CN(c2cc(C)cc(C)c2)S(=O)(=O)c2c(C)noc2C)c1 39.8 µM [inhibitor, single point]
CCNS(=O)(=O)c1c(C)cc(N2CCCC2=O)cc1C 39.8 µM [inhibitor, single point]
C=CCOc1c(Br)cc(CNc2ccc(NC(=O)C(C)C)c(OC)c2)cc1OC 11.2 µM [inhibitor, partial curve, poor fit]
Cc1cccc(C(=O)N2CCC(=O)N([C@H](COCc3ccc(Cl)cc3)Cc3ccccc3)CC2)c1 39.8 µM [inhibitor, single point]
C/C(=N\Nc1cc(N2CCOCC2)nc(C)n1)c1cccc([N+](=O)[O-])c1 23.8 µM [inhibitor, single point]
Cc1ccc(CCC(=O)Nc2ncc(Cc3cc(Cl)ccc3Cl)s2)o1 39.8 µM [inhibitor, single point]
N=c1c2c(ncn1CCCO)Oc1ccc3ccccc3c1C2c1ccccc1 (stereo unspecified) 31.6 µM [inhibitor, single point]
N#CC1=C(N)NC(SCc2ccc(F)cc2)=C(C#N)C12CCCCC2 31.6 µM [inhibitor, partial curve, poor fit]
CCc1cc(-c2[nH]ncc2-c2ccc(OC)cc2)c(O)cc1O 26.7 µM [inhibitor, partial curve, poor fit]
COc1ccc(N=N/C(=C\O)C(=O)c2cccs2)cc1 35.5 µM [inhibitor, single point]
CCOC(=O)Cn1c(=O)n(C2CCCCC2)c2nc(-c3c(F)cccc3Cl)nc(C(N)=O)c21 39.8 µM [inhibitor, single point]
Cc1c(CC(=O)O)c(=O)oc2c(C)c(OCc3nn[nH]n3)ccc12 5.62 µM [inhibitor, partial curve, poor fit]
CCc1ccc(OCCn2c(C3CC(=O)N(Cc4ccc(F)cc4)C3)nc3ccccc32)cc1 (stereo unspecified) 39.8 µM [inhibitor, single point]
Cc1ccc(NC(=O)CCC(=O)N/N=C/c2cc([N+](=O)[O-])ccc2O)cc1 22.4 µM [inhibitor, single point]
CCN(CC)C(=O)c1cccc(-c2csc(C(O)c3ccc(OC)cc3)n2)c1 (stereo unspecified) 39.8 µM [inhibitor, single point]
C[C@H](CO)N1C[C@H](C)[C@@H](CN(C)S(=O)(=O)c2ccc(F)cc2)Oc2c(NC(=O)Nc3ccc(C(F)(F)F)cc3)cccc2C1=O 31.6 µM [inhibitor, single point]
Cc1ccc(/C=C2\SC(=S)N(CCCC(=O)Nc3cc(C)on3)C2=O)cc1 8.91 µM [inhibitor, partial curve]
CC(C)CC(=O)Nc1nc(-c2ccc(S(=O)(=O)N3CCOCC3)cc2)cs1 20 µM [inhibitor, partial curve, poor fit]
C#CCN1C=C(C(=O)OCC)C(C)N(Cc2ccccc2I)S1(=O)=O (stereo unspecified) 15.8 µM [inhibitor, partial curve, poor fit]
CC1CCN(C(=O)c2ccc(NC3=C(Cl)C(=O)N(Cc4ccccc4)C3=O)cc2)CC1 25.1 µM [inhibitor, single point]
Cc1oc(-c2ccc(Cl)cc2)nc1CN1CCCC(C(=O)NCc2ccccc2)C1 (stereo unspecified) 31.6 µM [inhibitor, partial curve]
CC1=C(C(=O)N(C(C)C)C(C)C)CC(CC(=O)NCCCCc2ccccc2)C(=O)N1Cc1ccc(F)cc1 (stereo unspecified) 39.8 µM [inhibitor, single point]
Cc1cc(SCc2cc(=O)n3ccsc3n2)nc2ccccc12 0.0095 µM [inhibitor, full curve]
CCCc1cc(=O)[nH]c(-n2[nH]c3c(c2=O)CCCC3)n1 28.2 µM [inhibitor, single point]
CCCC(=O)NC(=S)Nc1ccc(N2CCN(C(=O)c3cccs3)CC2)cc1 15.8 µM [inhibitor, partial curve, poor fit]
COC(=O)c1sc(-c2ccc(C(C)(C)C)cc2)cc1NC(=O)/C=C/C(=O)O 39.8 µM [inhibitor, single point]
N#CC(C#N)=c1ccc2c(c1)N1C3=C(CCCC3)CC3CCCCC31N=2 (stereo unspecified) 39.8 µM [inhibitor, single point]

Potency, active:
COc1ccc(C2CC(c3ccccc3)=NN2C(=O)c2ccc(Cl)c([N+](=O)[O-])c2)cc1 (stereo unspecified) 28.2 µM
CCOC(=O)[C@]12Cc3c(cc(OC)c(OC)c3OC)[C@H]1N(Cc1ccccc1)C(=O)c1cc(OC)ccc12 20 µM
O=C(N/N=C/c1ccccc1O)/C(=C/c1ccccc1)CCO 3.55 µM
